Data from PubChem BioAssay AID488969 (Vanderbilt High Throughput Screening Facility, 2010).
Whole data set: some 110,000 compounds, median “z-score” near -0.1, cut for the highest 2% near 2. The list shows a part of the results. The source made the active and inactive calls.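 Rule for the calls: active = z-score in the third read window above 3 or below -3; inactive = the rest.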

Target: Metabotropic glutamate receptor 8 (Rattus norvegicus) (UniProt P70579)
Test: mGluR8 Gi/Go-coupled signaling modulation – cell-based, rat, thallium flux, HTS, primary screen (AID 488969)
Settings: HEK293 rat mGluR8, GIRK (G protein-gated inwardly rectifying potassium channel) thallium flux, FluoZin2; at 10 µM; stronger effect = higher value; submaximal glutamate (EC20) added with thallium

Sequence of UniProt P70579 (P70579 whole entry, looked up): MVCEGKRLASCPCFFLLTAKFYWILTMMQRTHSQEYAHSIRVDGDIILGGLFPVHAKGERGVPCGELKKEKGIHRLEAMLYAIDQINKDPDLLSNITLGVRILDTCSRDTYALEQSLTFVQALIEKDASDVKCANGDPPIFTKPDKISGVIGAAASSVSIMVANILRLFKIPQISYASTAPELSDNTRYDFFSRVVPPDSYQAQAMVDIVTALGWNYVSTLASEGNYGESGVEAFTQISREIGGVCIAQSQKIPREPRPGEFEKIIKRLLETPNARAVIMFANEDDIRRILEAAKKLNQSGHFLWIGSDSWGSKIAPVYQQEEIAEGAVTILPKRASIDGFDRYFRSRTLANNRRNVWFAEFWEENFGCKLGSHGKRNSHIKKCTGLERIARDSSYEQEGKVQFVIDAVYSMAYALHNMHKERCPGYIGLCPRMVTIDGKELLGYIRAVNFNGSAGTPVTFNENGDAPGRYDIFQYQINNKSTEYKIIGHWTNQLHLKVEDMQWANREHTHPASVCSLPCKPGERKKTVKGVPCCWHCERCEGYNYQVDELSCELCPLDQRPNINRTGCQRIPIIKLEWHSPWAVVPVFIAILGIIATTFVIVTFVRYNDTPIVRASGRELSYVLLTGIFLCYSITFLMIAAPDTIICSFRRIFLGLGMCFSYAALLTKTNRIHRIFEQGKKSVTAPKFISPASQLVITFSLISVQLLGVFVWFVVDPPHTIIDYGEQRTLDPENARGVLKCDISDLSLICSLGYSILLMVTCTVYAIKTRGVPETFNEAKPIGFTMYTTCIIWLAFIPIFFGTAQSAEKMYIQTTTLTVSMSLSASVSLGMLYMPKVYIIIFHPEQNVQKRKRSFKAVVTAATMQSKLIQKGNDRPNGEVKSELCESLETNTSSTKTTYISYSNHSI

Row | Structure (SMILES) | z-score
1 | CN1CCc2nc(SCC(=O)Nc3ccc(OC(F)(F)F)cc3)c(C#N)c(-c3cccs3)c2C1 | 0.0639
2 | Cc1c(NC(=O)c2cc3nc(-c4ccc(Br)cc4)cc(C(F)(F)F)n3n2)c(=O)n(-c2ccccc2)n1C | -0.51
3 | O=C(Nc1ccc2ccccc2c1)/C(=C\c1ccc2c(c1)OCO2)NC(=O)c1ccco1 | -0.365
4 | Cc1ccc(C2Nc3ccccc3NC3=C2C(=O)OC(C)C3)cc1 (centres undefined) | -0.18
5 | Cc1ccccc1C(=O)N1CCN(c2ccc([N+](=O)[O-])c(NCc3cccnc3)c2)CC1 | -0.418
6 | C=CCC(NC(C)c1ccccc1)c1ccco1 (centres undefined) | 0.174
7 | CCC(=O)N1CCN(c2ccccc2NC(=O)Cc2ccc(Cl)cc2)CC1 | -1.15
8 | Cc1ccc(C2=NN(C)c3nc4ccccc4n3C2)cc1 | -0.484
9 | Cc1ccc2c(N)c(C#N)sc2n1 | 0.0283
10 | CC1(C)C(=O)OC(c2cccn2-c2cccc([N+](=O)[O-])c2)C2(CCCCC2)C1=O (centres undefined) | -0.339
11 | COc1ccc(OC)c(-c2cc(C3CCN(c4cc(Cl)nc(N)n4)CC3)[nH]n2)c1 | -0.137
12 | Cc1ccsc1C(=O)Nc1ccc(C(=O)O)cc1 | -0.13
13 | O=C(CSc1ccccc1)N(c1ccc(Br)cc1)c1nccs1 | active: 9.08
14 | O=C(NCCN1C(=O)C2C3C=CC(C3)C2C1=O)NCc1ccccc1 (centres undefined) | -0.251
15 | Cc1ccc(S(=O)(=O)N2CCN(CC(=O)NC(=O)NCc3ccccc3)CC2)cc1C | -0.184
16 | O=[N+]([O-])c1cc(C2Nc3cccc4cccc(c34)N2)ccc1Cl | -0.278
17 | Cc1csc(SCC(=O)NC(=O)NCc2ccccc2)n1 | 0.0694
18 | N#Cc1cnn2c(-c3ccccc3)ccnc12 | -0.389
19 | Cc1cc(C(F)F)n2ncc(C(=O)N3CCC(C(N)=O)CC3)c2n1 | -0.0129
20 | COc1ccc(OCCn2cc(/C=N/NC(=O)c3ccncc3)c3ccccc32)cc1 | -0.353
21 | Cc1ccc(NC(=O)CSc2nsc(SCC(=O)Nc3ccc(C)cc3C)c2C#N)c(C)c1 | -0.432
22 | CC(=O)OC1CSc2nc3ccccc3n2C1 (centres undefined) | -0.132
23 | CCOc1ccc(OCC)c(NC(=O)C2CCCN(S(=O)(=O)c3c(C)noc3C)C2)c1 (centres undefined) | -0.458

Row | Structure (SMILES) | z-score
24 | COC(Cc1n[nH]c(=S)n1-c1ccccc1)OC | 0.0393
25 | CCOCC(=O)Nc1cc(C(=O)OC)ccc1C(=O)OC | -0.075
26 | Cc1csc(=NC(=O)c2ccccc2)n1C | -0.359
27 | COc1ccc(/C=C2\N=C(SC)N(C)C2=O)cc1 | -0.0452
28 | COc1cc(C(=O)OCC(=O)NCc2ccccc2)cc(NC(=O)c2ccco2)c1OC | -0.957
29 | Cc1ccc(-n2c(SCC(=O)NCc3ccco3)nnc2-c2cccnc2)cc1 | -0.0721
30 | N/C(CC(=O)NCCOc1ccccc1)=N\O | 0.691
31 | COc1ccc(CNC(=O)C2CCNCC2)cc1 | -0.0327
32 | Cc1c(C)c2cc(Cl)c(O)c(CN3CCN(C)CC3)c2oc1=O | 0.4
33 | CCOC(=O)c1sc2nc3c(SCC(=O)O)cc(C(=O)c4cc(F)ccc4O)cn3c(=O)c2c1C | -0.189
34 | Clc1c(CSc2nc3ccccc3o2)nc2ccccn12 | -0.743
35 | CCOC(=O)COc1cccc2c(=O)n(CC(=O)N3CCCc4ccccc43)ccc12 | -0.205
36 | Nc1nc2n(n1)C(c1c(F)cccc1Cl)CC(c1ccc(F)cc1)N2 (centres undefined) | 1.07
37 | CC(C)(C)C(=O)Nc1nnc(Cc2ccccc2)s1 | -0.00414
38 | COc1ccc(C2=C(C#N)C(=O)OC2)cc1 | -0.0847
39 | O=C(CSc1nc(O)c(C2CCCCC2)c(=O)[nH]1)NCC1CCCO1 (centres undefined) | -0.699
40 | O=C(Nc1ccccc1N1CCOCC1)C1CCN(S(=O)(=O)c2ccccc2F)CC1 | 0.223
41 | Cc1ccc(C(=O)C2(C)C3c4cc(Br)ccc4OC(=O)C32C(=O)c2ccco2)cc1 (centres undefined) | -0.961
42 | COC(=O)c1ccc2c(c1)N(C)C(=O)CS2 | 0.0398
43 | COc1ccc(C(O)c2nccn2C)cc1 (centres undefined) | 0.332
44 | COc1ccc(-c2[nH]ncc2-c2cnc(C)s2)c(O)c1 | 0.401
45 | CCOc1ccc(N(CC(N)=O)S(=O)(=O)c2ccc(F)cc2)cc1 | -0.0718
46 | CC(=O)c1ccc(NC(=O)c2ccn[nH]2)cc1 | 0.38

Row | Structure (SMILES) | z-score
47 | CCCCNS(=O)(=O)c1ccc(S(=O)(=O)n2cnc3ccccc32)cc1 | -0.101
48 | Cc1ccc(C(=O)N/C(=C\c2ccc(-c3cccc([N+](=O)[O-])c3)o2)C(=O)NC(C)(C)C)cc1 | -0.596
49 | C=CCNC(=O)/C(C#N)=C/c1ccccc1OCc1ccc(C(=O)OC)cc1 | -0.241
50 | CC(C)OC(=O)C1C2C=CC3(CN(Cc4cccs4)C(=O)C13)O2 (centres undefined) | 0.0334
51 | Cc1ccc([N+](=O)[O-])cc1NC(=O)c1ccc(-c2ccccc2)cc1 | -0.0716
52 | COc1ccc(Cn2c(=S)[nH]c3ccsc3c2=O)cc1 | active: 3.86
53 | CCOC1CS(=O)(=O)CC1OCC (centres undefined) | -0.134
54 | CSc1nc(-c2ccccc2)[nH]c(=S)c1C(C)=O | active: 7.43
55 | CCCCNC(=S)NNC(=O)c1nn(C)c(C)c1Cl | 0.549
56 | Cc1cccc(NC(=O)/C(C#N)=C/c2cn(CC(=O)NCc3ccco3)c3ccccc23)c1C | -0.176
57 | NC(=O)C1CCN(c2nc(-c3ccc(Br)cc3)cs2)CC1 | -0.112
58 | FC(F)(F)c1ccc(-n2ccnc2)nc1 | -0.0598
59 | Clc1ccc(OCCCN2CCCC2)cc1Cl | 0.671
60 | CCOC(=O)c1ccccc1NC(=O)Cc1ccccc1OC | -0.663
61 | Nn1c(Cc2cccc3ccccc23)nnc1SCc1ccccc1 | -0.465
62 | CSc1ccccc1NC(=O)c1ccc(Cl)s1 | -0.184
63 | O=C(c1ccc(C#CC2(O)CCCCC2)cc1)N1CCN(C(c2ccccc2)c2ccccc2)CC1 | 0.0718
64 | CCn1c(=O)c([N+](=O)[O-])c(NCCc2ccccc2)c2ccccc21 | -0.178
65 | Cc1cnn(C(=O)c2oc3ccccc3c2C)c1 | -0.239
66 | CC(=O)c1cccc(NC(=O)Nc2ccc(C)cc2)c1 | 0.145
67 | CSC1=NCCN1C(=O)c1c(-c2ccccc2Cl)noc1C | 0.0159
68 | CCOC(=O)NC(O)C(=O)c1cccs1 (centres undefined) | -0.035
69 | O=C1CC(C(=O)O)S/C(=N\NC(=O)c2ccc(F)cc2)N1 (centres undefined) | -0.235

Row | Structure (SMILES) | z-score
70 | O=C(Cn1c(=O)oc2ccccc21)NC(=O)NCc1ccco1 | 1.13
71 | COc1ccc2c(COC(=O)c3n[nH]c4ccccc34)cc(=O)oc2c1 | 3.37e-05
72 | COc1cccc(NC(=O)CSc2nnc(CNC(=O)c3ccccc3)n2C)c1 | -0.299
73 | Cc1cc(=O)[nH]c(N=N/C(=N/Nc2ccc(O)cc2)c2ccccc2)n1 | -0.0726
74 | COc1ccc(-c2c(C#N)c(SCc3c(C)noc3C)nc3c2C(=O)CC(C)(C)C3)cc1 | -0.229
75 | O=C(CSc1ncn(-c2ccccc2)n1)Nc1nccs1 | -0.946
76 | C=CCn1c(COc2cccc3ccc(C)nc23)nnc1SCC(=O)OC | -0.136
77 | Cc1ncc([N+](=O)[O-])n1CC(=O)NC(C)(C)C | -0.281
78 | Cc1cc(C)n(-c2nc3nonc3nc2-n2nc(C)cc2C)n1 | 0.084
79 | Cc1ccc(NC(=O)CCc2ccc(S(=O)(=O)NC3CCCCC3)cc2)cc1 | 0.245
80 | C=CCN(CC=C)C(=O)c1ccccc1NC(=O)c1ccccc1C | 0.278
81 | COc1cccc(/C=N/NC(=O)CN2C(=O)NC3NC(=O)NC32)c1 (centres undefined) | -0.188
82 | COc1cc(NC(=O)c2cnn3c(C)cc(C)nc23)c(OC)cc1Cl | -0.00417
83 | O=C(CSc1nccn1-c1ccccc1)N1CCc2ccccc21 | -0.925
84 | CCOc1cc(NC(=O)c2cccs2)c(OCC)cc1NC(=O)c1ccco1 | -0.433
85 | Cc1ccc(C)c(SCC(=O)OCC(=O)c2ccco2)c1 | -0.124
86 | CCOC(=O)c1c(C)oc2ccc(O)c(CN(C)C)c12 | 0.911
87 | COc1ccc(OC)c(N(CC(=O)Nc2ccc(NC(C)=O)cc2)S(C)(=O)=O)c1 | 0.00569
88 | COc1ccc(OC)c2[nH]c(=O)c(CCNC(=O)CC(C)C)cc12 | 0.0956
89 | COc1ccc(N=Nc2[nH]c3ccc(C)cc3c2O)cc1 | -0.15
90 | O=C1C(Oc2ccccc2)C(c2ccc3c(c2)OCO3)N1CCc1ccc(F)cc1 (centres undefined) | -0.198
91 | CCOC(=O)c1[nH]c(C)c(C(=O)Nc2ccc(C)c(Cl)c2)c1C | -0.307
92 | Cc1cc(C)cc(OCC(=O)Nc2ccc3c4c(cccc24)CC3)c1 | 0.316

Row | Structure (SMILES) | z-score
93 | Cc1nc(SCC#N)c2c(C)c(C)sc2n1 | 0.0201
94 | Cc1ccccc1N1Cc2ccccc2C1 | -0.325
95 | CCc1nc2ccccc2c(C(=O)O)c1C | -0.239
96 | CC(C)CO/C(=N/S(=O)(=O)c1ccccc1)c1ccccc1 | -0.662
97 | CC(=O)NC(CCS(C)(=O)=O)C(=O)N1CCc2ccccc21 (centres undefined) | -0.105
98 | CC(/C=N\Nc1nnc2c(n1)[nH]c1c(C)cccc12)=C\c1ccco1 | 0.162
99 | O=C(NC1CCCCCC1)C1CCCN1S(=O)(=O)c1cccc2cccnc12 (centres undefined) | -0.0831
100 | Cc1cccc(-c2nnc(SCCC(=O)N3CCOCC3)o2)c1 | -0.242
101 | CN(NC(=O)Nc1ccc(Cl)cc1)c1ncc(C(F)(F)F)cc1Cl | 0.137
102 | COc1ccc2c(c1)-c1nc(/N=C/c3ccc(O)c(OC)c3)sc1CC2 | -0.06
103 | COc1ccc(OCC(=O)Nc2ccccc2O)cc1 | -0.431
104 | O=C(CSc1ncn[nH]1)Nc1ccc([N+](=O)[O-])cc1Br | -0.12
105 | Cc1cc(C)n2cc(CSCC(=O)O)nc2n1 | 1.46
106 | O=C(/C=C/Sc1ncn[nH]1)c1ccc(Cl)cc1 | -0.225
107 | CCCC(c1nnnn1CCOC)N1CCN(Cc2ccccc2)CC1 (centres undefined) | -0.131
108 | O=C(Nc1ccc2oc(-c3ccccc3)nc2c1)C1CCCO1 (centres undefined) | -0.123
109 | CCOc1cc2[nH]c(=S)n(CCN3CCCCC3CC)c(=O)c2cc1OCC (centres undefined) | 1.73
110 | CCOC(=O)C1=C(CN2CCc3ccccc32)NC(=O)NC1c1cc(C)ccc1C (centres undefined) | -0.293
111 | N#Cc1ccc(-c2cccnc2)nc1SCc1ccc(Cl)c(Cl)c1 | 0.141
112 | CC(=O)[C@@H]1[C@@H](C(=O)c2ccccc2)[C@]2(C(=O)Nc3ccccc32)[C@H]2C=Cc3cc(F)ccc3N12 | 0.0653
113 | Cc1ccccc1N(CC(N)=O)S(C)(=O)=O | 0.313
114 | CN(C)c1ccc(/C=[N+](\[O-])C(C)(C)/C=N/O)cc1 | 0.552
